Experimental data published in the supplement of paper PMC11417369.
The list shows a part of the results.

test system: PF3D7_0420300 AP2 domain 1 (GST-tagged); test: gcPBM binding intensity (ln(normalized median fluorescence intensity)); higher = stronger DNA binding
Procedure, shortened: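 Each value is the highest Masliner-normalised natural-log median intensity across replicate spots of either orientation of a probe. The probes were primer-extended double-stranded 36-bp intergenic genomic sequences on an Agilent 4 × 180k array, alongside negative controls, exposed for 1 h to GST-tagged P. falciparum DNA-binding domains expressed in E. coli. Bound protein was picked up with Alexa488 anti-GST antibody and scanned at 488 nm.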

Sequence	gcPBM binding intensity (ln)
AGTTATATGGTTAATACACACAACAAATGTTTCTTC [CACACA_site6642]	9.54
GTGTGATGGTACAATATACACACTTAAAAAAAAAAA [CACACA_site8769]	9.14
AAAAAATATATTTGCACACTCAAAAAAAAAAAAAAA [CACACA_site859]	9.08
GATCTATACATGGGGACACACATCACTCTATATTTT [CACACA_site3408]	9.63
ATTTGTTATATATTCTTTTATGTTAATAATTCGAAT [CACACA_negctrl_site378]	9.29
TATGAATAAAAAAGAAGTACAAATTATATGAACGCA [XGTACX_site3018]	9.53
AAAAAATACAAACACACACACACACCCATATATATA [CACACA_site3560]	10.2
CATACTGTTATAAAATGTACGCATATACACACACAT [XGTACX_site7256]	9.89
TTTTGTTTAATATTCACACATATATATTTTTTATTT [CACACA_site5496]	9.41
CTTTTTATTTAGGAGGTGCATGTAATACGGAACATA	9.1
AGAAACATATGGTAGTGTACTGTAAATTTATTCTTT [XGTACX_site8602]	9.33
ATTTTGTGTAGTGATGCATGTTATATATATATTTGA [TGCATGCA_site422]	9.55
TTTTATCAAATATTTATTTTATACATAAATATTTAT [XGTACX_negctrl_site528]	9.04
ATAACATCAGTATTATGTACATATGTAGGTAAATAA [XGTACX_site7066]	9.34
TTTTATTGTTTTTTTTTTTTTTCTTTTTTTTTTTTT [CACACA_negctrl_site1094]	9.42
CGTTATTATACACATACACACAGGAATAAAAAATTA [CACACA_site7373]	9.6
TTCTGACTTGTTATAATTTGTATATCCGAAAAAATT [TGCATGCA_negctrl_site456]	9.16
TACATATTTTGTATATATTATTTATTTTATTAGTTT [XGTACX_negctrl_site85]	9.23
ACTATTATTAAAAATTGTACTTTCTATAAATTTTTT [XGTACX_site7825]	9.15
TTTTTTTTTTGTTGAGTGCAATTATTTGTAAGAAAA	8.81
AAATTAATATATAAAAGTACCCATATATTTAATATA [XGTACX_site3551]	9.08
TCTCCACCTCTCTTGGTGCGTTATACCCTCGAGGCT	9.12

Sequence	gcPBM binding intensity (ln)
TATAACAAAATATTCACACATATAAGTAAATAAAGG [CACACA_site5777]	9.51
AGTTTGTTTTTTTTTTTTTTTTCCTGTCACAAACAA [CACACA_negctrl_site1093]	9.44
GTACGTTACATAAATGTGCACATATTATATGCGAAG	9.23
GTCATATATATATGTACACACATATATATATTTATA [CACACA_site1459]	9.5
TCAAAGCACCCATACACACACATATATATATATATA [CACACA_site4317]	9.67
AAGACTGCACTTTAAGCACACAAATATATTTTTTTT [CACACA_site8337]	9.2
AAGAAAAAAATTTAATTAAATGAAATTTTTGAATTA [TGCATGCA_negctrl_site25]	8.81
ATTATTATATTTATATGTACATAGAAAAAATTAAAT [XGTACX_site2058]	9.15
AAAAATAAAGGATATACACACTAATTATATATATAT [CACACA_site5550]	9.51
AAAGTGGCCATATATTTTTTTTTTTTTTTCCTTATT [CACACA_negctrl_site485]	9.11
TAGTATCCAAGAAAAAGTACTTATTTTAATTTTTTA [XGTACX_site6243]	8.99
TCAGATATATATATATAAATATATATTTTGAAATGT [CACACA_negctrl_site686]	9.07
TCATTTAAGTAGACGCGTACGGAAATTACGAATCCT [XGTACX_site144]	9.15
TTTCTTCTTCTATTGTGTACGTAAAAAAAAAAAAAA [XGTACX_site772]	8.78
TTTGAAATATTAAATGCATGTTAAAACATAAAAATG [TGCATGCA_site680]	8.94
GGTAATTTCCTTTTTTGTACTCATAGAAGGATAATA [XGTACX_site89]	9.19
TGATAAAATGGGGAAATTCATTATATCATATCTTGG [CACACA_negctrl_site789]	9.08
TTGGATAAAAAATATGTACACACATATAGATATCTA [CACACA_site8862]	9.37
ATTATATTAAAATACACACCCAAATATTAAAAAGAT [CACACA_site5613]	9.77
ACATTTTTTTCATATCGTACATATTATAATATTTTC [XGTACX_site6524]	9.49
ACAAGTCAGGCAAAAACATGCATTATTTGAACATTA [TGCATGCA_site864]	9.15
AAAAAAAAAAAAGGAGGTACACAATTTTATATATGC [XGTACX_site5296]	9.29
